# Source: ChEMBL document CHEMBL4888484, “Replenishing the malaria drug discovery pipeline: Screening and hit evaluation of the MMV Hit Generation Library 1 (HGL1) against asexual blood stage Plasmodium falciparum ,using a nano luciferase reporter read-out” (2022)
# In all, about 150,000 compounds went through this assay and about 540 (0.36%) showed an effect of 50% or more. The list shows a part of the results.
# System: Plasmodium falciparum
# Assay: Primary screen in NF54 nanoGlo assay, in single point, at 2uM, 72h; a lower Z score goes with more inhibition
# Assay type: functional, Erythrocyte
# Conditions: timepoint 72 hour
SMILES,% Inhibition [%],Z score
Cc1cc(NC(=O)c2ccc(C)s2)no1,-6,0.89
Cc1csc([C@H](C)N(C)C(=O)c2ccccc2-c2nnn[nH]2)n1,-6,0.96
CCO[C@H]1CN(Cc2cc3ccccc3s2)C[C@@H]1O,-4,0.55
CC[C@H](O)Cn1nc(-c2csc(C)n2)nc1COC,15,-1.96
COC(=O)CC[C@]1(C(F)(F)F)N=C(C(C)C)C(=O)O1,-8,0.7
O[C@H]1CCN(c2cc(C(F)(F)F)nc3c(F)cc(Br)cc23)C1,-10,1.02
COCCn1cncc1CN1CCCC2(CCOCC2)C1,-12,2.34
C[C@@H](c1ccc(N2CCCS2(=O)=O)cc1)N(C)Cc1cn(C(C)(C)C)nn1,1,-0.14
O=C(Cn1c2c(c(=O)n3nc(-c4ccccc4)nc13)CCC2)Nc1cccc(F)c1,-3,0.32
COc1nnc(NC(=O)N2CCC[C@H]2c2nc(C)cs2)s1,-10,2.07
Cc1ccc(-c2cc(-c3c(O)nc4ccc(C)cc4c3-c3ccccc3)nc3ccccc23)cc1,-37,4.38
Cc1nnc(-c2coc(S(=O)(=O)N3CCN(C)CC3)c2)o1,-12,1.57
NS(=O)(=O)CCN1CCN(C(=O)C2CC2C2CCCCC2)CC1 (stereo not drawn),-47,5.46
Cc1ccc(C(=O)N2CC[C@H](N(C)C)[C@H](CCCO)C2)c(O)c1,-10,1.01
CCn1ncc(C)c1NC(=O)N1CCO[C@H](C(=O)OC)C1,-2,0.25
CCc1cnc([C@H](C)NCc2nnc(C)o2)s1,5,-0.62
N#Cc1cccnc1N1CCn2cncc2C1,-10,0.89
COC1(OC)CCOC[C@@H]1NCc1ccc(OC(F)F)cc1,1,-0.21
Cn1nccc1-c1cncc(CNC(=O)Cn2nnc3ccccc32)c1,25,-3.33
O=C(Cc1cc(Cl)ccc1Cl)NCC1(O)CCOCC1,-4,0.44
C[C@H](N)c1ccc(NC(=O)c2c(C(F)F)nc3n2CCCC3)cc1,-5,0.58

SMILES,% Inhibition [%],Z score
CN1C(=O)CCCC[C@H]1C(=O)N1CCN(Cc2ccc3c(c2)OCO3)CC1,-1,0.19
NC(=O)c1c(F)cccc1N1CCC(OCC2CC2)CC1,-1,0.22
O=C(CN(Cc1cccc(O)c1)C1CCC(O)CC1)Nc1ccc(Br)cc1 (stereo not drawn),1,-0.12
CCN(C)c1ccc(CN[C@H]2CCCOc3c(F)cccc32)cn1,-1,0.16
CC(C)[C@H]1N(C(=O)N2CCOCC2)CCN1S(=O)(=O)c1ccc(F)cc1,1,-0.14
O=C(Nc1ccnn1C1CCCCC1)c1n[nH]c2ccccc12,-19,2.51
Cc1cnc(CNc2ccc(S(=O)(=O)CCO)cc2C)o1,9,-0.92
CN(Cc1ncc[nH]1)C(=O)Nc1cc(C(=O)N2CCCCC2)ccc1Cl,3,-0.47
COc1ccc2c(N3CC4(CCC4)[C@H]3c3ccncc3)ncnc2c1F,-8,1.26
CCN1CCN(C[C@]2(O)CCCN(CC3CC3)C2=O)CC1,1,-0.08
CNS(=O)(=O)CC(=O)N[C@H](c1c(F)cccc1F)C(F)(F)F,-2,0.31
Cc1ccc(CN2CCC[C@H](C(=O)Nc3nncs3)C2)cc1,-4,0.33
CCOC1CC(NC(=O)CCc2nc(C3CC3)no2)C12CCCCC2 (stereo not drawn),-4,0.5
CS(=O)(=O)Cc1ccc(-c2ccc3c(c2)OCO3)nc1,-8,1.36
CCN(CC)S(=O)(=O)c1ccc(Oc2ccc(C(=O)c3ccc(F)cc3)cc2)nc1,-3,0.45
COc1ccc(NCc2ccc(C)o2)cn1,-13,1.5
CCC[C@H](C)N1CC2(CCN(C(=O)Cn3cccnc3=O)CC2)OC1=O,-1,0.15
Cc1nc(CC[C@H]2CCN(C(=O)c3noc(C)c3COc3ccccc3)C2)no1,1,-0.2
O=C(Nc1ccccc1C(F)(F)F)N1CCN(c2nc3cc(F)ccc3n3cccc23)CC1,15,-2.72
FC1(F)CN[C@H](c2noc(C3CC3)n2)C1,-5,0.94
Cn1ncc(C2CC2)c1CNC(=O)N[C@H]1C[C@@H](Oc2ccccc2)C1(C)C,-6,0.94

SMILES,% Inhibition [%],Z score
CCOC(=O)c1c(C)c(CCC(=O)NCc2ccccc2Cl)n(C)c1C,2,-0.4
C[C@H]1CCCCN1CCC1CCN(C(=O)Nc2ccncc2F)CC1,3,-0.45
O=C1CN(CC2=Nc3ccccc3S(=O)(=O)N2)CCN1,-8,0.82
CCCC(=O)N1CCc2nc(COC)sc2C1,-14,1.87
O=C(Nc1ccc(OCC(F)(F)C(F)F)nc1)[C@@H]1COCCO1,-14,2.05
Cc1ccc(C(=O)N2CCC(N3C(=O)N[C@@H](CC(C)(C)C)C3=O)CC2)cc1,-22,2.39
CC1NCCN(S(=O)(=O)c2ccc3c(c2)OCCCO3)C1C (stereo not drawn),-6,0.57
Cc1ccc(C#N)c(NCc2cc3n(n2)CCN(C2CCCCC2)C3)n1,9,-1.57
CN(C(=O)Cn1cc(S(=O)(=O)Cc2ccccc2)c2ccccc21)C1CCCCC1,-10,1.57
CCC[C@H](C)CS(=O)(=O)NC(=O)Cc1nc(C)sc1C,3,-0.41
O=C(N[C@H]1CC[C@H](Oc2ncc(F)cn2)CC1)c1cccc(F)c1,-5,0.98
COc1ccc(NC(=O)Cn2c(=O)n(CCc3cccs3)c(=O)c3ccccc32)cc1Cl,38,-4.27
c1ccc(-n2nnc(-c3noc(-c4ccccn4)n3)c2-c2ccncc2)cc1,-27,5.29
CC(C)C1CCCN(C(=O)COC2CCCCC2C)CC1 (stereo not drawn),11,-1.33
CCn1ccnc1CNc1cc(C2CCCCCC2)[nH]n1,-1,0.04
Cc1nc(CC(=O)N2CCOC[C@H]2C(=O)O)cs1,-9,1.37
CN1CCC(C(=O)N2CCCC2c2cccc(F)c2)CC1=O (stereo not drawn),-1,0.21
Cc1ccc(N2CCCN(Cc3cc(F)ccc3Cl)C2=O)c(NC(=O)Nc2cccc(Cl)c2)c1,2,-0.18
Oc1[nH]nc(-c2ccccc2)c1C(c1ccc(Br)cc1)c1c(-c2ccccc2)n[nH]c1O,-12,2.22
O=C(NCc1noc(-c2ccccc2)n1)C1(N2CCOCC2)CCCCC1,16,-2.05
O=C(NCc1ccc2nsnc2c1)c1cc(=O)n(-c2ccccc2)[nH]1,-9,1.64

SMILES,% Inhibition [%],Z score
CCn1nc(C(=O)N2CCc3c(ncn3C)C2)c(=O)c2ccccc21,-2,0.49
CCC(=O)Nc1ccc2c(c1)CN(C(=O)c1ccc(OC)cc1)[C@H](C(=O)N1CCCC1)C2,-8,1.24
O=C(Nc1ccc(F)cc1Cl)[C@@H]1CCCN1c1ncnc2sccc12,-4,0.62
COc1cc2cc(CNCCO)c(=O)n(CC3CCCCC3)c2cc1OC,-15,2.9
CN1CCO[C@H](C(=O)NC(C)(C)COc2ncc(Cl)cc2Cl)C1,-9,1.72
O=C(NCCN1CCCC1)[C@H]1CCCN(c2cnc3nccnc3c2)C1,-1,0.13
O=C1C[C@@H](c2cccc3nsnc23)c2cc3cn[nH]c3cc2N1,-2,0.38
CC1(C)[C@H](Cc2cc(CCO)on2)C[C@@H]1NCc1ccccc1F,33,-3.72
N#Cc1cccc(NC(=O)N2CCC(c3cc4n(n3)CCCNC4=O)CC2)c1,-16,2.92
NC(=O)c1ccc(C(=O)N(C2CCC2)C2CCC2)s1,1,-0.19
CC[C@H]1CCCCN1S(=O)(=O)c1cc(-c2nc(-c3ccccc3)no2)sc1C,-4,0.44
CCN1C(=O)C[C@H](C(=O)NCc2cc(O)ccc2Cl)[C@H]1c1nccn1C,1,-0.13
N#Cc1ccc(F)c(CNc2ccn(-c3ncccc3C(F)(F)F)n2)c1,-11,1.09
CS(=O)(=O)N1CCC(C(=O)Nc2cnn(Cc3c(F)cc(F)c(F)c3F)c2)CC1,36,-5.27
c1ccc(-c2noc([C@H]3CCn4ccnc4C3)n2)nc1,-11,1.68
COc1ccc2[nH]cc(C(=O)c3sc(Nc4cc(C)cc(C)c4)nc3N)c2c1,-28,4.35
Cc1ccc(Nc2ccn3c(=O)n(CC(=O)NCc4ccc(F)cc4)nc3n2)cc1,-8,0.83
Cc1noc(C)c1CCC(=O)N1CCCCCO1,0,0.05
CC(C)OC1CCC(NC(=O)N2C[C@H](N)C3(CCC3)C2)CC1 (stereo partly drawn),5,-0.93
Nc1cc(N2CCC[C@@]3(CCC(=O)N(CCc4ccccc4)C3)C2)ncn1,-7,0.97
N[C@@H]1CCN(C(=O)c2cccc(OCc3cccc(Cl)c3)c2)C1,-1,0.1
